According to PubChem BioAssay AID686979 (National Center for Advancing Translational Sciences (NCATS), 2013):
Hit rate of the full screen: of about 420,000 compounds, about 50,000 (12%) were called active. The inconclusive results got no clear call from the source; some entries with a clear call stand among them for comparison. The call rests on the fitted dose curve; in most records, active means well fitted inhibition curve with a large enough effect; inconclusive means small, poorly fitted or top-dose-only effect; inactive means flat fitted curve, though single readings scatter. Potencies of inconclusive entries are left out as doubtful fits.

assay: qHTS for Inhibitors of human tyrosyl-DNA phosphodiesterase 1 (TDP1): qHTS in cells in presence of CPT; details: chicken DT40 Tdp1-/-;hTDP1 cells + 20 nM CPT, ATP luminescence, 48 h; activity change, negative = growth inhibition: at 46.2 µM (top of the series); further: nearly all actives have a fitted effect of over 55% in size
In short: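 Chicken DT40 Tdp1-/- cells stably complemented with human TDP1 were seeded at 400 cells/well in medium containing 20 nM camptothecin, exposed to pin-transferred compounds, and grown at 37 °C for at least 48 hr. Viability was read as ATP luminescence.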
On the % scale 0 is the no-effect control and ±100 the full control effect; potency means the concentration at half of the fitted maximal effect; tags describe the fitted curve by direction and shape.

Row | SMILES | Potency | activity change, negative = growth inhibition
1 | FC(F)(F)c1ccc(-c2cccc3c2C2CC3CCN2Cc2ccc3c(c2)OCO3)cc1 (centres undefined) | inconclusive [inhibitor, single point] | –
2 | COc1ccc(CNC(=O)[C@H](Cc2c[nH]c3ccccc23)NC(=O)[C@@H]2Cc3ccccc3CN2)cc1 | inconclusive [inhibitor, single point] | –
3 | COc1ccc(Nc2ccc(S(=O)(=O)N3CCCCC3)cc2[N+](=O)[O-])cc1 | inconclusive [inhibitor, single point] | –
4 | COc1cc(OC)cc(C(=O)NCC(=O)OCC(=O)NC2CCCc3ccccc32)c1 (centres undefined) | inactive | –
5 | COc1ccc(OC)c(/C=N/NC(=O)c2ccc3nc[nH]c3c2)c1 | inactive | –
6 | S=C(NCc1ccco1)N1CCN(c2nc(-c3ccc(Cl)cc3)cs2)CC1 | inconclusive [inhibitor, single point] | –
7 | CC(C)NC(=O)c1ccccc1NC(=O)C1COc2ccccc2O1 (centres undefined) | inconclusive [inhibitor, single point] | –
8 | CCc1nnc(NC(=O)CSc2nc3c(c(=O)n2C)SC(C)C3)s1 (centres undefined) | inconclusive [inhibitor, single point] | –
9 | c1ccc(Nc2nc(N3CCCCC3)nc(N3CCCCC3)n2)cc1 | inconclusive [inhibitor, single point] | –
10 | CC(C)N1C[C@@H](NCc2ccccc2O)C[C@H]1C(=O)N1CCN(c2cccc(C(F)(F)F)c2)CC1 | – | inactive: -8.03% [at 9.04 µM]
11 | CCOc1ccc(C(=O)CC(=O)C(=O)NCCc2ccc(OC)c(OC)c2)cc1 | inconclusive [inhibitor, single point] | –
12 | O=C1CN(c2ccc(Br)cc2)C(=O)N1CC(=O)N1CCCc2ccccc21 | inconclusive [inhibitor, partial curve] | –
13 | COc1cccc(C(C)(O)c2nc(-c3cccs3)cs2)c1 (centres undefined) | inconclusive [inhibitor, single point] | –
14 | CCOc1ccc2c(c1)C(C)=CC(C)(C)N2S(=O)(=O)c1ccc(NC(C)=O)cc1 | active: 1.03 µM | –
15 | Cn1c(N)c(C(=O)COC(=O)/C=C/c2cccc(C(F)(F)F)c2)c(=O)n(C)c1=O | inactive | –
16 | CCCCC/C=C\C/C=C\CCCCCCCC(=O)O | inactive | –
17 | COc1ccc(N2CCN(C(=O)CCCSc3nc4ccccc4[nH]3)CC2)cc1 | inconclusive [inhibitor, partial curve] | –
18 | COc1cccc(NC(=O)c2c(C(=O)Nc3ccccc3)sc3nc(C)cc(=O)n23)c1 | inactive | –
19 | CCc1nc2c(OCc3cccc(OC)c3)cccn2c1N(C)C(=O)c1ccc(OC)cc1 | inconclusive [inhibitor, single point] | –
